# Data: the supplement of paper PMC3334620
# Over roughly 33,000 sequences, “E-score (-0.5 to 0.5)” has its median near -0.021; the highest 2% begin near 0.32. This is one part of the list.
# Molecular target: T1, Zap1 (UniProt P47043)
# T1 sequence: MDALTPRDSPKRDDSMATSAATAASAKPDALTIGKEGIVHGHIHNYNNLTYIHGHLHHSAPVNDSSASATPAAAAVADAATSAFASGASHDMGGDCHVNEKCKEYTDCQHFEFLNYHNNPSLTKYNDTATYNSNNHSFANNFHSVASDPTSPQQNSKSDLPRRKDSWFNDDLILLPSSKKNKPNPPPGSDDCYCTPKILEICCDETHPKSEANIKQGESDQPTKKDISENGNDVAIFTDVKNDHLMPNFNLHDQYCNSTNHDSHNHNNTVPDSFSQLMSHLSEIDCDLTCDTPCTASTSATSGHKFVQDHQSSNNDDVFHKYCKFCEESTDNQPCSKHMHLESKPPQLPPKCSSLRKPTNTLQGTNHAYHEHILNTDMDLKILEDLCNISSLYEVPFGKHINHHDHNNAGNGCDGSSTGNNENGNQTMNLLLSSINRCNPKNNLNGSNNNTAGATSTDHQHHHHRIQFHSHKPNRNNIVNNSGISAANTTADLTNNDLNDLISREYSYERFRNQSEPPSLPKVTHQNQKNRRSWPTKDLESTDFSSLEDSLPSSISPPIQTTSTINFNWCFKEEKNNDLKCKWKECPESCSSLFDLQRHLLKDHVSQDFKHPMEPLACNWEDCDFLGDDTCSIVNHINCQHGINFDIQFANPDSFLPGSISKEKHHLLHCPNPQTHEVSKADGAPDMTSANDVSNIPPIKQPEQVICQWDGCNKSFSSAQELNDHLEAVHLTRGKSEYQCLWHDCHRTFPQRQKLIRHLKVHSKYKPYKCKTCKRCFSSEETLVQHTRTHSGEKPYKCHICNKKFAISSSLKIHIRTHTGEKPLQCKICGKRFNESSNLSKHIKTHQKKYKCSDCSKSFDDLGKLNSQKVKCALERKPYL
# Test: PBM E-score (8-mer binding enrichment) (E-score (-0.5 to 0.5)); higher = stronger / more preferred TF binding; most listed sequences are background and not binding sites
# Conditions: protein concentration: 200 nM; construct: GST-full length
# Procedure, shortened: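 Universal all-10-mer Agilent arrays, fresh or stripped once, were converted to double-stranded form by primer extension. GST-tagged yeast transcription factors from PURExpress in vitro transcription/translation, full-length or DNA-binding domain only, were applied at about 100-200 nM and detected with fluorescent anti-GST. After masliner normalisation, the Universal PBM Analysis Suite scored each ungapped eight-base word together with its reverse complement by E-score.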
row,Sequence,PBM E-score
1,GCCAAAAA,0.226
2,TGGGACAA,0.0979
3,CGCCGATC,-0.0775
4,ACGAACAG,-0.0258
5,ACGATCTG,-0.221
6,AGCAGGGC,-0.19
7,GCACCGCC,-0.133
8,GCATGAAA,0.0763
9,CTGGTATC,-0.0766
10,CGCCCTGA,-0.151
11,AAGACATT,-0.161
12,GATCGGTA,0.0187
13,ACATGGAG,-0.288
14,GAGCTCCA,-0.146
15,AGCATCAC,-0.186
16,ATAATTAA,0.283
17,ACAAGTGT,-0.0701
18,TAACGCCA,-0.00924
19,AGCTACTG,-0.0511
20,TGATTACA,0.0808
21,ATGCCTAG,-0.142
22,CAACCTCC,0.11
23,AGTATCCA,0.0249
24,ATCAAGAA,0.169
25,AAGATGAA,-0.119

row,Sequence,PBM E-score
1,ACCCCTAT,0.324
2,CGACCTGC,-0.098
3,GTCAACGA,0.088
4,CAGTGTGA,-0.00553
5,CGATGTGC,-0.193
6,GATGGCCA,0.202
7,ACTCCCAC,-0.172
8,TGATACAA,0.0581
9,GTGCGTTA,0.0111
10,ACCATTCT,0.0676
11,CACCCTGA,0.162
12,GACAGGAA,0.0503
13,CACCCTCC,0.326
14,TAACTACA,0.25
15,CAAAACAC,0.167
16,CTGCGCAA,-0.131
17,CGATCCGA,-0.0912
18,ACGTAGAG,-0.136
19,CTGTATGA,-0.101
20,AAACCTTC,0.106
21,AACGAGCT,-0.167
22,CCCGACTC,-0.113
23,AGTGGAAG,-0.204
24,ATGAACTG,0.0254
25,CCAGTAGC,-0.134

row,Sequence,PBM E-score
1,GATTGTTA,0.0692
2,CCTCAGCG,-0.135
3,AGTGCAGA,-0.0375
4,AACAAGTT,0.0719
5,ACTCCTCA,-0.261
6,AGGTCGTA,0.189
7,AAAACCGC,0.16
8,AGTACAGC,-0.186
9,AAACTCCA,-0.0324
10,ATACAATC,-0.0527
11,ACGACTAG,-0.0356
12,CGCCCGCC,-0.137
13,ACGGGGCG,0.0523
14,CACGACGC,-0.0412
15,CATGGCGC,-0.101
16,ATCCATTA,0.125
17,AGATTTGC,-0.0426
18,CGCATCCG,-0.182
19,AACGCATG,-0.11
20,ATACATCG,-0.0304
21,ATCGCCAA,-0.061
22,ACCATGCG,-0.0399
23,GGGTCGCA,0.264
24,CATTGGTA,0.0623
25,ATGTCCTC,0.0186

row,Sequence,PBM E-score
1,CGCCTATC,-0.204
2,GCTCTTGA,-0.213
3,ACTACCAG,-0.0188
4,AGTCATGG,-0.00999
5,CGTGTGGC,-0.208
6,CTCACACC,-0.06
7,AATAAAGT,0.239
8,AGAGAATG,-0.0214
9,TCTATCAA,0.0482
10,CCCTGCTA,-0.0286
11,GCTATGCC,-0.27
12,GGCGATGA,-0.261
13,AGCCCGAG,-0.149
14,AGAGCTCT,-0.378
15,CGGCCAGC,-0.215
16,CCAAGCCG,-0.112
17,ACCAGCAC,0.00044
18,AAGGAGTA,-0.0173
19,CCTCGAAA,0.111
20,ATCGTCTA,-0.148
21,CGACGTGC,-0.259
22,CGAACTTA,0.0786
23,AATTGTCG,-0.0744
24,TATGGCCA,0.164
25,CTTAACTC,0.0138

row,Sequence,PBM E-score
1,AGTCGACA,0.04
2,AAGGTATA,0.237
3,ATCCGCGA,-0.0356
4,ACCAATGG,0.201
5,TAAGCGCA,-0.0722
6,CCCCAGAA,0.189
7,CACCCACC,0.194
8,TAAGTTGA,0.0648
9,ACAGTCAC,-0.171
10,GGCATACA,-0.15
11,CCCAGAGC,-0.139
12,CAGGCGTA,-0.0918
13,ACTTCCCT,0.0737
14,GAGTGCCC,-0.226
15,GGTTCACA,-0.0618
16,GGACTTCA,-0.103
17,CGTAGCAG,-0.0847
18,ACTTGGCA,-0.112
19,GATGGACC,0.135
20,CGACGCAC,-0.0191
21,GTTCTCAA,0.15
22,AGCCTATG,-0.125
23,ACTACAAG,-0.0104
24,ACTTCGCG,0.123
25,CGCGCACG,0.0211

row,Sequence,PBM E-score
1,CGCTTTCA,-0.0291
2,GACATGAA,-0.00976
3,CGTCTGTC,-0.249
4,CTACAAGA,0.0478
5,AATACTCG,0.00335
6,CAGCTCCG,-0.0528
7,CTCTAACC,0.136
8,TAAGCCTA,0.111
9,AACTATAA,0.0107
10,CTTCTAAC,-0.0941
11,TCTTTGCA,-0.00705
12,AAGCGTGC,-0.0502
13,CATGTAGC,-0.125
14,CCGCAGAA,0.0829
15,GCATACGA,-0.0508
16,ATGACCCG,0.269
17,CGTTTTCC,-0.141
18,CTCAGGTC,0.145
19,CACTTGCC,-0.197
20,CTCAACCC,0.201
21,GCCACCAC,0.0146
22,CATGACCC,0.38
23,ATTTATGG,0.217
24,CTGCCTAA,-0.0639
25,GGAACAGA,-0.0482

row,Sequence,PBM E-score
1,CGATGTTA,0.0463
2,CAACTTAA,0.0997
3,CCTGTGCG,0.00281
4,AGTAGAAA,0.164
5,CACTTACC,0.11
6,CGGGGAAA,-0.0233
7,TGCCATAA,-0.0856
8,GAAGTAAC,0.126
9,TACCCTAA,0.435
10,GTGCAACA,-0.159
11,GTGTGATA,0.0955
12,AGGTTTAT,0.15
13,AGGGTACC,0.461
14,GCGACATA,-0.0703
15,GATATCCC,0.0463
16,AATTCACC,0.0819
17,AAGATGGC,-0.0782
18,ATGATCGA,-0.0722
19,ACGGATCC,-0.0798
20,GATATGCA,-0.0775
21,CAATGTGC,-0.197
22,GACGTTAC,0.179
